{
  "source": "PubChem BioAssay AID686971",
  "about": "(National Center for Advancing Translational Sciences (NCATS), 2013)",
  "note": "Hit rate of the full screen: of about 360,000 compounds, about 7,500 (2.1%) were called active. The shares of active, inactive and inconclusive entries below differ from those in the screen. Calls come from the whole dose curve; as a rule, active = well fitted cell-killing curve with a large enough effect; inconclusive = small, poorly fitted or top-dose-only effect, or effect the other way, or another doubt; inactive = no such curve, though single readings can be large or run the other way. Potencies of inconclusive entries are left out as doubtful fits. Potency is the fitted concentration of half-maximal effect; tags give direction and shape of the fitted curve.",
  "data": [
    {"assay": "qHTS for induction of synthetic lethality in tumor cells producing 2HG: qHTS for the HT-1080-IDH1KD cell line;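 for activity, negative = toxicity: 0% = DMSO wells and -100% = cell-free medium wells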", "conditions": "HT-1080 IDH1 knockdown viability, ATP luminescence, 48 h; activity, negative = toxicity: at 46.1 µM (top of the series) unless noted", "procedure,_shortened": "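Cytotoxicity counter-line: IDH1KD HT-1080, 48 h, CellTiter-Glo. Curves classed by r2, magnitude and activity.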", "values": [
      {"compound": "Cc1cc(C)c2sc(N(CCCN(C)C)C(=O)c3ccc(S(=O)(=O)N4CCCc5ccccc54)cc3)nc2c1", "Potency": "inconclusive [cytotoxic, single point]"},
      {"compound": "CCOc1ccc(-c2cc(C(=O)N/N=C(\\C)c3cccnc3)c3ccccc3n2)cc1", "Potency": "inconclusive [cytotoxic, full curve]"},
      {"compound": "CC(C)(C)c1ccc(C(=O)NNC(=S)NC(=O)c2cccnc2)cc1", "Potency": "inconclusive [cytotoxic, single point]"},
      {"compound": "Cn1ccnc1SCC(=O)Nc1cccc2ccccc12", "Potency": "inactive"},
      {"compound": "CC(C)Cn1c(C(C)C)nc([N+](=O)[O-])c1S(=O)(=O)c1ccc(F)cc1", "Potency": "active: 7.08 µM"},
      {"compound": "O=C(Nc1nc(-c2ccc3c(c2)Cc2ccccc2-3)cs1)c1ccccc1", "Potency": "inconclusive [cytotoxic, single point]"},
      {"compound": "O=[N+]([O-])c1ccc(S(=O)(=O)CC2CSc3nc4ccccc4n32)cc1", "note": "(stereo unspecified)", "Potency": "inactive"},
      {"compound": "COc1ccc(C2=NN(C(=O)COC(=O)c3ccc(S(C)(=O)=O)c([N+](=O)[O-])c3)C(c3ccco3)C2)cc1", "note": "(stereo unspecified)", "Potency": "active: 14.6 µM"},
      {"compound": "Cc1ccc(S(=O)(=O)N/N=C\\c2ccc(Cl)c([N+](=O)[O-])c2)cc1", "Potency": "inconclusive [cytotoxic, partial curve, poor fit]"},
      {"compound": "Nc1c(S(=O)(=O)c2cc(Cl)ccc2Cl)c2nc3ccccc3nc2n1CCN1CCOCC1", "Potency": "inconclusive [cytotoxic, single point]"},
      {"compound": "CCOc1ccccc1N(CC(=O)NC1CCCC1)S(=O)(=O)c1ccc(C)cc1", "Potency": "inactive"},
      {"compound": "CCOC(=O)c1oc2ccc(S(=O)(=O)N3CCOCC3)cc2c1C", "Potency": "inactive"},
      {"compound": "CC/C(=C/c1ccccc1)c1cccc2[nH]c3c(OC)cccc3c12", "Potency": "inconclusive [cytotoxic, single point]"},
      {"compound": "CCc1cccc2c(C(=O)CN3C(=O)NC4(CCc5ccccc54)C3=O)c[nH]c12", "note": "(stereo unspecified)", "Potency": "inconclusive [cytotoxic, single point]"},
      {"compound": "Cc1onc(-c2c(F)cccc2Cl)c1C(=O)O/N=C(\\N)c1ccc([N+](=O)[O-])o1", "Potency": "active: 11.6 µM"},
      {"compound": "O=C1C(=Cc2ccc(Cl)cc2)CCc2ccccc21", "Potency": "inconclusive [cytotoxic, single point]"},
      {"compound": "CC[n+]1c(C=C2C=C(C)OC(C)=C2)sc2ccccc21", "Potency": "inconclusive [cytotoxic, full curve]"},
      {"compound": "CCC(C)(C)NC(=O)C(c1ccc(C)o1)N(Cc1cccs1)C(=O)Cn1nnc2ccccc21", "note": "(stereo unspecified)", "Potency": "inconclusive [cytotoxic, single point]"},
      {"compound": "O=C(NCc1cccnc1)c1c[nH]c2cc3c(cc2c1=O)OCCO3", "Potency": "inconclusive [cytotoxic, single point]"},
      {"compound": "COc1ccc(C2Nc3ccccc3C(=O)N2Cc2ccco2)cc1COc1ccc([N+](=O)[O-])cc1", "note": "(stereo unspecified)", "Potency": "inactive"},
      {"compound": "Oc1ccc(Cl)cc1CNCc1ccc(F)c(F)c1", "Potency": "inactive"},
      {"compound": "O=C(N/N=C/c1ccco1)c1cc(-c2ccc3ccccc3c2)n[nH]1", "Potency": "inconclusive [cytotoxic, single point]"},
      {"compound": "COc1ccc(NC(=O)CCCn2c(=O)c3sccc3n(Cc3ccccc3C)c2=O)cc1", "Potency": "inactive"},
      {"compound": "C[C@H](CO)N1C[C@H](C)[C@@H](CN(C)Cc2ccc(Cl)c(Cl)c2)Oc2c(NC(=O)Cc3ccccc3)cccc2C1=O", "Potency": "inconclusive [cytotoxic, single point]"},
      {"compound": "O=C(O)/C=C/C(=O)NCCC(c1ccccc1)c1ccccc1", "Potency": "inactive"},
      {"compound": "Cc1ccc(NC(=O)COC(=O)c2ccco2)cc1S(=O)(=O)N1CCCCC1", "Potency": "inactive"},
      {"compound": "O=C(CNC(=O)c1ccc2c(c1)OCO2)N/N=C/c1cc(Br)ccc1O", "Potency": "active: 11.6 µM"},
      {"compound": "Cc1cc(C(F)(F)F)n2nc(-c3cnn(C)c3C(F)(F)F)c(Cl)c2n1", "Potency": "inconclusive [cytotoxic, single point]"},
      {"compound": "Cc1cc(F)ccc1S(=O)(=O)N1CCCCC1CCNC(=O)C(=O)NCc1ccccn1", "note": "(stereo unspecified)", "Potency": "inactive"},
      {"compound": "CC(=O)Nc1cc(-c2cccc(C(=O)NCCN(C)C)c2)cn2c(-c3ccc(C(C)=O)cc3)cnc12", "Potency": "inconclusive [cytotoxic, single point]"},
      {"compound": "COc1cc(/C=C2\\SC(N)=NC2=O)ccc1OCC(=O)Nc1ccccc1C", "Potency": "inconclusive [cytotoxic, single point]"},
      {"compound": "Cc1ccc(C(=O)/C=C/Nc2cccc(O)c2)cc1", "Potency": "inconclusive [cytotoxic, single point]"},
      {"compound": "COc1cc(C(=O)NNC(=S)NC(=O)c2ccc(F)cc2)cc(OC)c1OC", "Potency": "inconclusive [cytotoxic, single point]"},
      {"compound": "CCc1cccc2c(C(=O)CN3C(=O)NC(C)(c4cccc5ccccc45)C3=O)c[nH]c12", "note": "(stereo unspecified)", "Potency": "active: 14.6 µM"},
      {"compound": "Cc1cccc(C)c1NC(=O)C(c1ccncc1)n1c(=O)c(-c2ccccc2)nc2ccccc21", "note": "(stereo unspecified)", "Potency": "inactive"},
      {"compound": "CC(=O)Nc1cc(-c2cccc(N)c2)cn2c(-c3ccc(C(C)=O)cc3)cnc12", "Potency": "inconclusive [cytotoxic, single point]"},
      {"compound": "Clc1cccc(Cc2c(-c3cccc(Br)c3)nc3ccc(Cl)cn23)c1", "Potency": "inconclusive [cytotoxic, single point]"},
      {"compound": "CC1(C(=O)Nc2ccc3ccccc3c2)CCC(=O)N1CCc1c[nH]c2ccccc12", "note": "(stereo unspecified)", "Potency": "inconclusive [cytotoxic, single point]"},
      {"compound": "CCSc1nnc2ccc(-c3cccs3)nn12", "Potency": "inconclusive [cytotoxic, single point]"},
      {"compound": "O=C(COc1ccc(C(=O)NCc2cccnc2)cc1)Nc1cccc(C(F)(F)F)c1", "Potency": "inconclusive [cytotoxic, single point]"},
      {"compound": "CCN1/C(=N\\N)c2cccc3cccc1c23", "Potency": "inactive"},
      {"compound": "O=C(Nc1nc(-c2ccco2)c(-c2ccco2)s1)C1CC(=O)N(c2ccc3c(c2)OCCO3)C1", "note": "(stereo unspecified)", "Potency": "inconclusive [cytotoxic, single point]"},
      {"compound": "Cc1c(-c2cccs2)[n+](=O)c2c(n1[O-])CCCC2", "Potency": "inactive"},
      {"compound": "Cc1cc(C)c(C)c(S(=O)(=O)N2CCN(C(=O)c3cc(=O)[nH]c4ccccc34)CC2)c1C", "Potency": "inconclusive [cytotoxic, single point]"},
      {"compound": "Cc1ccccc1Nc1nc(N)nc(COC(=O)[C@@H](NC(=O)c2ccccc2Cl)C(C)C)n1", "Potency": "inactive"},
      {"compound": "O=S(=O)(NCC(c1ccco1)N1CCc2ccccc2C1)c1ccc(Br)cc1", "note": "(stereo unspecified)", "Potency": "inconclusive [cytotoxic, single point]"},
      {"compound": "Cc1ccc(Nc2nc(N/N=C\\c3ccc4c(c3)OCO4)nc(N3CCOCC3)n2)cc1", "Potency": "active: 25.9 µM"},
      {"compound": "O=C(CC(O)(C(F)(F)F)C(F)(F)F)Nc1ccc(Cl)c(Cl)c1", "Potency": "active: 11.6 µM"},
      {"compound": "COc1cc2c(cc1OC)C(C)N(C(=O)c1cc3ccccc3o1)CC2", "note": "(stereo unspecified)", "Potency": "active: 5.62 µM"},
      {"compound": "COc1cccc(C(c2nnnn2C2CCCC2)N2CCN(C/C=C/c3ccccc3)CC2)c1OC", "note": "(stereo unspecified)", "Potency": "inconclusive [cytotoxic, single point]"},
      {"compound": "COc1ccc2nc(C)cc(N/N=C/c3ccc(F)cc3)c2c1", "Potency": "active: 4.61 µM"},
      {"compound": "O=C(c1ccoc1)N1CCN(c2cc(-c3ccccc3)nc3cc(-c4ccc(Br)cc4)nn23)CC1", "Potency": "inactive"},
      {"compound": "Cc1ccccc1Nc1nc(N)[nH]c(=O)c1N=O", "activity, negative = toxicity": "inconclusive: -31% [cytotoxic]"},
      {"compound": "Cc1nc(NC(=O)c2ccco2)sc1C(=O)O", "Potency": "active: 23.1 µM"},
      {"compound": "CC(=O)c1cccc(-c2ccnc3c2CC(C(=O)NCC2CCOCC2)O3)c1", "note": "(stereo unspecified)", "Potency": "inconclusive [cytotoxic, partial curve, poor fit]"},
      {"compound": "Cc1onc(-c2ccccc2)c1NC(=O)Nc1c(-c2ccccc2)noc1C", "Potency": "inactive"},
      {"compound": "Cc1nnc(NS(=O)(=O)c2ccc(Br)cc2)s1", "Potency": "inactive"},
      {"compound": "COCCNC(=O)C1CCCN(C(=O)c2ccnc(Cl)c2)CC1", "note": "(stereo unspecified)", "Potency": "inconclusive [rising, partial curve]"},
      {"compound": "COc1ccc(CNC(=O)C2(CC3CC(c4ccccc4)=NO3)CCN(C(=O)C3(C)CC3)CC2)cc1", "note": "(stereo unspecified)", "Potency": "inactive"},
      {"compound": "O=C(N/C(=C\\c1ccccc1)C(=O)N1CCOCC1)c1cccc(Br)c1", "Potency": "inactive"},
      {"compound": "CC1(C)CC(CC(=O)Nc2nccs2)(c2ccccc2)CCO1", "note": "(stereo unspecified)", "Potency": "inactive"},
      {"compound": "CCN(CC(O)COc1ccc(OCC(O)CN(CC)C2CCCCC2)cc1)C1CCCCC1", "note": "(stereo unspecified)", "Potency": "inconclusive [cytotoxic, partial curve]"},
      {"compound": "CN1CCC(NCCC(c2ccc(F)cc2)c2ccc(Cl)cc2)CC1", "note": "(stereo unspecified)", "Potency": "active: 5.17 µM"},
      {"compound": "COc1ccc(N(CC(=O)NCCSCc2ccc(C)cc2)S(=O)(=O)c2ccccc2)cc1", "Potency": "inconclusive [cytotoxic, partial curve, poor fit]"},
      {"compound": "COc1ccc(CCn2c(=N)c(C(=O)NCc3ccco3)cc3c(=O)n4ccccc4nc32)cc1", "Potency": "active: 12.6 µM"},
      {"compound": "O=C(NCCN1CCOCC1)c1ccc2c(c1)N(Cc1ccc(Cl)cc1)C(=O)CS2", "Potency": "inconclusive [cytotoxic, single point]"},
      {"compound": "COc1cccc(NC(=O)CSc2ncnc3c2cnn3Cc2ccccc2)c1", "Potency": "inconclusive [cytotoxic, single point]"},
      {"compound": "Cc1ccccc1OCC(=O)N1N=C(c2cccnc2)CC1(O)C(F)(F)F", "note": "(stereo unspecified)", "Potency": "inactive"},
      {"compound": "Cc1ccccc1NC(=S)NC(=O)CCc1ccccc1", "Potency": "inconclusive [cytotoxic, single point]"},
      {"compound": "CCOC(=O)c1ccccc1NS(=O)(=O)c1ccc(OCC)cc1", "Potency": "active: 2.24 µM"},
      {"compound": "O=C1NC[C@H](CCCCN2C[C@H](Cc3ccc(O)cc3)N(Cc3ccccc3)C(=O)C2=O)N(CCc2ccc(O)cc2)C1=O", "Potency": "inconclusive [cytotoxic, single point]"}
    ]}
  ]
}
